Consider 26 compounds from PubChem BioAssay AID463173 (ICCB-Longwood Screening Facility, Harvard Medical School, 2010).

Each structure is given as a SMILES string. In all, about 52,000 compounds went through this assay and about 1,700 (3.3%) were called active. Rule as the data show it: active = survival mostly below about 52% (no sharp cut-off); inactive = mostly above about 56%. Some of the results follow.

The subject of this assay is Wild type. In words: S. aureus survival, RN4220 and DeltatarO strains – OD600, teichoic acid synthesis inhibitors, primary screen (AID 463173). Particulars: S. aureus RN4220 wild type/DeltatarO growth, OD600, 18 h, hits give low values, screened at 18.75 µg/mL (by protocol).
Turning to `CCCn1cc(S(=O)(=O)c2ccc(C)cc2)c(=O)c2cc(F)c(N3CCCC3)cc21`, the survival was inactive: 99%.

Take `COc1cc(NC(=O)c2ccc(C)c(Cl)c2)ccc1NC(=O)c1cc2ccccc2o1`: the survival was inactive: 78%.

Consider `CCOc1ccccc1Nc1ncnc2c1cnn2-c1ccc(C)cc1`, for which the survival was inactive: 76%.

Take `Cc1ccc(CNC(=O)CSc2ncc3c(n2)-c2cc(Cl)ccc2N(C)S3(=O)=O)cc1`: the survival was inactive: 88%.

Consider `Cc1c(C(=O)NCc2ccc(Cl)cc2)oc2ccc3c(c12)C(=O)CC(C)(C)O3`, for which the survival was inactive: 76%.

Consider `CCCCOc1ccc(CNC(=O)c2cccc(NC(=O)N3CCSc4ncccc43)c2)cc1`, for which the survival is inactive: 71%.

Consider `CCCCNC(=O)C1CCCN(S(=O)(=O)CCC)C1` (stereo unspecified), for which the survival is inactive: 84%.

As to `CCc1nn(CC(=O)NC2CC2)c(=O)c2cc3c(OC)cccc3n12`, the survival is inactive: 84%.

For the compound `O=C(CCc1nc(CN2CCN(S(=O)(=O)c3ccc(Br)cc3)CC2)no1)N1CCCCC1`, the survival was inactive: 84%.

Consider `CCOc1ccccc1C1CC(=O)Nc2c1c(=O)n(C)c1ncnn21` (stereo unspecified), for which the survival was inactive: 142%.

Take `COc1cc2c(cc1OC)C(c1cc3cc4c(cc3[nH]c1=O)OCO4)N(C(=O)c1ccco1)CC2` (stereo unspecified): the survival is inactive: 113%.

Consider `COc1ccc(-n2ncc3c(NCCCOC(C)C)ncnc32)cc1`, for which the survival is active: -2%.

Consider `COc1cccc(Cn2cc(C(=O)c3ccccc3)c(=O)c3cc4c(cc32)OCO4)c1`, for which the survival is inactive: 84%.

As for `COc1cc2cc(CNc3ccccc3)c(=O)n(CC(=O)Nc3cccc(Cl)c3C)c2cc1OC`, the survival is inactive: 22%.

`COc1cc(NC(=O)Cn2c(=O)n(CC3CCC(C(=O)NCCc4ccccc4)CC3)c(=O)c3ccccc32)cc(OC)c1` (stereo unspecified): the survival is inactive: 153%.

In the case of `CCc1ccc(C(=O)c2cn(CC(=O)Nc3ccc4c(c3)OCCO4)c3ccc(F)cc3c2=O)cc1`, the survival is inactive: 89%.

`Cc1ccc(NCc2cccn2-c2nnc(N3CCC(C(=O)NCCc4ccc(Cl)cc4)CC3)s2)cc1`: the survival was inactive: 79%.

Consider `COc1c(O)cccc1-c1nnn(CCC(=O)OCC(=O)c2ccccc2)n1`, for which the survival was inactive: 98%.

`CCc1nn2c(=O)cc(COC(=O)c3cccc(NC(=O)CCc4ccccc4)c3)nc2s1`: the survival is inactive: 72%.

Regarding `COc1ccc(-n2c(C)nc3c(cnn3-c3ccc(F)cc3)c2=O)cc1`, the survival was inactive: 78%.

In the case of `CCCCN(CC)CCCNC(=O)c1c(C)oc2ncnc(N3CCOCC3)c12`, the survival was active: 14%.

Consider `CCn1cc(/C=C(\NC(=O)c2ccc(OC)cc2)C(=O)NCCCn2ccnc2)c2ccccc21`, for which the survival was inactive: 100%.

`COc1ccccc1CNC(=O)C1CCN(c2nc3ccc(Cl)cc3[nH]2)CC1`: the survival is inactive: 19%.

As for `CCCCc1ccc(-n2nc3cc(C)c(NC(=O)c4ccc(C#N)cc4F)cc3n2)cc1`, the survival was inactive: 73%.

With `COc1cc2c(=O)n(CCC(=O)NCC3CCCO3)c(=O)n(CC(=O)Nc3ccccc3C)c2cc1OC` (stereo unspecified), the survival is inactive: 106%.

Regarding `CCc1nn(CC(=O)NCCc2ccc(OC)cc2OC)c(=O)c2cc3occc3n12`, the survival was inactive: 81%.
